According to PubChem BioAssay AID686978 (National Center for Advancing Translational Sciences (NCATS), 2013):
About 64,000 (15%) of roughly 420,000 compounds were called active. Inconclusive means that the source gave no clear call. Such entries were picked first, then a sample of the others. Calls come from the whole dose curve; as a rule, active = well fitted inhibition curve with a large enough effect; inconclusive = small, poorly fitted or top-dose-only effect; inactive = flat fitted curve, though single readings scatter. No potency is given beside an inconclusive call; the fits are too rough.

Assay: qHTS for Inhibitors of human tyrosyl-DNA phosphodiesterase 1 (TDP1): qHTS in cells in absence of CPT; note: nearly all actives have a fitted effect of over 55% in size
Details: DT40 Tdp1-/- hTDP1 cells, no CPT, ATP luminescence, 48 h; activity change, negative = growth inhibition: at 46.2 µM (top of the series) unless noted
In short: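 No-CPT arm: Tdp1-/-;hTDP1 DT40 cells (400/well) plus compounds, incubated ≥48 hr at 37 °C. Readout CellTiter-Glo luminescence.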
% is set by controls: 0 for no effect and ±100 for the full control effect; potency is the fitted concentration of half-maximal effect; tags give direction and shape of the fitted curve.

Row | SMILES | activity change, negative = growth inhibition | Potency
1 | C[C@@H]1CN([C@@H](C)CO)C(=O)CCCn2nncc2CO[C@H]1CN(C)C | inactive: -7.32% | –
2 | CCc1ccc(NC(=O)C2=CC(c3cccs3)=NS(=O)(=O)N2C)cc1 | – | active: 16.4 µM
3 | COc1ccccc1OCC(=O)N1CCN(C(=O)COc2ccccc2OC)CC1 | inactive: 5.51% | –
4 | Cc1c(-n2c(SCC(C)C)nc3ccccc3c2=O)c(=O)n(-c2ccccc2)n1C | – | inconclusive [inhibitor, single point]
5 | Cc1cc(SCC(=O)c2ccccc2)nc(SCC(=O)c2ccccc2)n1 | – | inconclusive [inhibitor, partial curve]
6 | CCOc1ccc(/C=C(/NC(=O)c2ccc(Cl)cc2)C(=O)O)cc1OCC | inactive: 0.226% | –
7 | O=C(c1ccc(F)cc1)c1c[nH]c(C(=O)NCc2cccnc2)c1 | – | inconclusive [inhibitor, partial curve]
8 | COc1cccc(CN2CC(C(=O)NCc3cccc(N4CCCC4)c3)CCC2=O)c1 (stereo not given) | – | inconclusive [inhibitor, single point]
9 | CN(CC(=O)Nc1ccc(N2CCOCC2)cc1)C(=O)c1cn(-c2ccccc2)nc1-c1ccccc1 | – | inconclusive [inhibitor, single point]
10 | COc1ccc(NC(=O)C(c2ccc(C(F)(F)F)cc2)n2c(=O)c(-c3ccco3)nc3ccccc32)cc1 (stereo not given) | – | inconclusive [inhibitor, partial curve]
11 | COCCOC(=O)c1c(C)n(C)c2ccc(OC(=O)C3CC3)cc12 | inactive: -7.83% | –
12 | CC(C)CNC(=S)N(CCCO)Cc1cc2cc3c(cc2[nH]c1=O)OCCO3 | – | inconclusive [inhibitor, single point]
13 | OC(c1ccc(Cl)c(F)c1)c1ncc(-c2ccc(Cl)cc2)[nH]1 (stereo not given) | – | inconclusive [inhibitor, partial curve]
14 | COc1ccccc1C1CC(=O)Oc2ccc(C(C)(C)C)cc21 (stereo not given) | inactive: -13.5% | –
15 | c1ccc(-n2c(Sc3cnccn3)nnc2-c2cccs2)cc1 | inactive: 3.96% | –
16 | CCOc1ccc(S(=O)(=O)Nc2cccc(-c3ccc(N4CCC(C)CC4)nn3)c2)cc1 | – | inconclusive [inhibitor, single point]
17 | CC(=O)Nc1ccc(NC(=O)c2ccc(-c3c(C)noc3C)c3ccoc23)cc1 | – | inconclusive [inhibitor, single point]
18 | COC(=O)c1ccc(NC(=O)CSc2nc(C)cc(=O)[nH]2)cc1 | inactive: -3.66% | –
19 | COc1ccccc1/C=C/CN1CCN(c2ccccc2)CC1 | – | inconclusive [inhibitor, single point]
20 | Cn1nnnc1SCCCNCc1cccc(OCc2ccccc2)c1 | – | inconclusive [inhibitor, single point]
21 | O=C(Cn1c(=O)sc2ccccc21)N1CCOCC1 | inactive: -3.8% | –
22 | CC(NC(=O)NCCCn1ccnc1)(C(F)(F)F)C(F)(F)F | inactive: -8.51% | –
23 | CCCCSc1nnc(C)c(=O)[nH]1 | – | inconclusive [inhibitor, single point]

Row | SMILES | activity change, negative = growth inhibition | Potency
24 | Cc1ccccc1Nc1nc(N)nc(CN(C)Cc2ccccc2Cl)n1 | – | inconclusive [inhibitor, single point]
25 | CCCCn1nc2cc(C(=O)NC3CCc4ccccc43)ccc2c1OCC (stereo not given) | – | inconclusive [inhibitor, partial curve, poor fit]
26 | COc1ccccc1C(=O)NC(CCSC)C(=O)NNC(=O)c1csc(N2CCOCC2)n1 (stereo not given) | inactive: -22% | –
27 | CCOc1cc(C)c(C(C)C)cc1S(=O)(=O)n1cnc(C)c1 | – | inconclusive [inhibitor, single point]
28 | O=C(CCn1cccn1)N1CCCC(Nc2ccc(F)c(F)c2)C1 (stereo not given) | inactive: -14.5% | –
29 | O=C(CSc1ncccc1C(=O)Oc1ccccc1Cl)Nc1ccccc1Cl | – | inconclusive [inhibitor, single point]
30 | O=C(Cc1ccc(F)cc1)OCN1C(=O)c2ccccc2C1=O | inactive: 0.556% | –
31 | COc1ccccc1CNC(=O)[C@@H]1CCCN1C(=O)[C@@H]1Cc2ccccc2CN1C(=O)OC(C)(C)C | – | active: 16.4 µM
32 | O=S1(=O)c2cccc3cccc(c23)N1Cc1nnc(-c2ccccc2Br)o1 | – | active: 18.4 µM
33 | COc1ccc(OC)c(-c2csc(N(C)C(=O)Cc3ccccc3)n2)c1 | inactive: -19.3% | –
34 | O=C(CSc1nnc(-c2ccccc2O)n1Cc1ccccc1)NNC(=O)c1ccccc1O | – | inconclusive [inhibitor, single point]
35 | COc1ccc(C2CC(c3ccccc3)=NN2c2ccc(/C=N/NC(=O)c3ccncc3)cc2)cc1 (stereo not given) | – | inconclusive [inhibitor, single point]
36 | CCN1CCN(c2ncnc3c2cnn3-c2cccc(C)c2)CC1 | – | inconclusive [inhibitor, single point]
37 | CC(C)Nc1nc(NC(C)C)nc(N(C#N)CCOc2ccc(Cl)cc2Cl)n1 | – | inconclusive [inhibitor, single point]
38 | CCCCNC(=O)C[C@@H]1C[C@@]2(C(=O)OC)CC(C)(C)CC=C2N(Cc2ccco2)C1=O | – | inconclusive [inhibitor, single point]
39 | C[C@H](NC(=O)C1CC(=O)N(c2ccc(F)cc2)C1)C(=O)N1CCCCC1 (stereo not given in full) | – | inconclusive [inhibitor, single point]
40 | COc1ccc(OC)c(CCNC(=O)CS(=O)(=O)Cc2nc(-c3ccc(C)cc3)oc2C)c1 | – | inconclusive [inhibitor, single point]
41 | COc1ccc(-c2nc(N)c(C#N)c(-c3cccnc3)c2C)cc1 | – | inconclusive [inhibitor, single point]
42 | CC(=O)NC1=NN(C(C)=O)C(C)(c2ccc(Cl)s2)S1 (stereo not given) | – | active: 5.17 µM
43 | CN(C(=O)c1cccc(NC(=O)Cc2cccc(NC(=O)C3CCCN(C(=O)C4CCCC4)C3)c2)c1)C1CC1 (stereo not given) | – | inconclusive [inhibitor, single point]
44 | CCOc1ccccc1NC(=O)C1CCCN1S(=O)(=O)c1ccc2nc(-c3ccccc3)[nH]c2c1 (stereo not given) | – | active: 6.51 µM
45 | Cc1ccc(C(=O)Nc2nnc(-c3ccncc3)o2)cc1 | – | inconclusive [inhibitor, single point]
